Article PMC4336329 (PLoS ONE, 2015)
The campaign covered roughly 310,000 compounds. About 2,200 (0.71%) showed an effect of 50% or more. The effect is printed as a negative number. Some of the results follow.

Each compound was assayed against human ether-à-go-go-related gene (hERG) potassium channel (human, UniProt Q12809) (assay: primary screen, population patch clamp on CHO cells stably expressing hERG).
human ether-à-go-go-related gene (hERG) potassium channel, sequence (Q12809 whole entry, looked up): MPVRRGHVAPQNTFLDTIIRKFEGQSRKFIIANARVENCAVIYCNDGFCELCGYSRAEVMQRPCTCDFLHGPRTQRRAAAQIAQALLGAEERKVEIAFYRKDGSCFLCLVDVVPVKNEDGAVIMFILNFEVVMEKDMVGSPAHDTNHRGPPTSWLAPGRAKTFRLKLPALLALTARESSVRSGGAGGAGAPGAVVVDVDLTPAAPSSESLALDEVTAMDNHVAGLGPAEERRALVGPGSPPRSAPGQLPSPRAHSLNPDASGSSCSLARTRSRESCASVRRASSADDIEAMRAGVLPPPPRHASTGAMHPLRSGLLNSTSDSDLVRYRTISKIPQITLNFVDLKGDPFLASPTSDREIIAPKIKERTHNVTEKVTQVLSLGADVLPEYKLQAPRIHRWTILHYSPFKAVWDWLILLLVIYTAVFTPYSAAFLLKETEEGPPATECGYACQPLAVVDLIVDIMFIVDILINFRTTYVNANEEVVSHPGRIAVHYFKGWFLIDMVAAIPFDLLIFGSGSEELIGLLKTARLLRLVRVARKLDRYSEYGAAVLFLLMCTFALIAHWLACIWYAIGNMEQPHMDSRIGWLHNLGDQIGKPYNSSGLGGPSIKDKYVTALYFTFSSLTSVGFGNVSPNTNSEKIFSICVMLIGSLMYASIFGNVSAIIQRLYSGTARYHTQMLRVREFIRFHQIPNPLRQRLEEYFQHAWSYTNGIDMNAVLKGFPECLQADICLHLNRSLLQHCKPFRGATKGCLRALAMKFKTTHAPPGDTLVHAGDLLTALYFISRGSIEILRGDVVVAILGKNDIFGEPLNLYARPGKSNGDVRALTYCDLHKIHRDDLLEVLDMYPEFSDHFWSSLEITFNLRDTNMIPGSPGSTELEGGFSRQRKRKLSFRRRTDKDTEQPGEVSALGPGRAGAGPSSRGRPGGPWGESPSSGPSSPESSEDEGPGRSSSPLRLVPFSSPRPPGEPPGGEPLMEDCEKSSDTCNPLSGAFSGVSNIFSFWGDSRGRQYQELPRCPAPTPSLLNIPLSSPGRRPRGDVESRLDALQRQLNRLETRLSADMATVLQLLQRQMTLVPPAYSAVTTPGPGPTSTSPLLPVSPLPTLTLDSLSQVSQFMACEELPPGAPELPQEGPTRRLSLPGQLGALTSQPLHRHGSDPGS

Row | Compound | hERG current change (%, negative = inhibition) at 1uM [%]
1 | Cc1ccc(NC(=O)c2[nH]cnc2C(=O)NN)cc1 | 6.16
2 | CCCCNc1nnc(SCC(=O)c2c(N)n(CCC)c(=O)[nH]c2=O)s1 | 6.04
3 | CN1CCN(C(=O)CCCN2C(=O)/C(=C/c3ccc(Cl)cc3)SC2=S)CC1 | 2.73
4 | CC(C)(C)C(C(=O)Oc1ccccc1)c1ccccc1 (stereo not shown) | 14.1
5 | CCn1c(NC(=O)c2ccco2)c(-c2ccccc2Cl)c(=O)c2ccccc21 | 20.9
6 | NC(=O)C1CCN(C(=O)COc2ccc3c(c2)oc(=O)c2ccccc23)CC1 | 8.66
7 | CCN1CCN(Cc2ccc(NC(=O)c3cc(NC(=O)c4cc(C)on4)cc(OC)c3)cc2C(F)(F)F)CC1.O=C(O)C(F)(F)F | 4.37
8 | Cc1ccc(-c2noc(CN(C(=O)c3cccc(Br)c3)C(C)C)n2)cc1 | 9.52
9 | COc1ccc(N2CCN(Cc3nc4ccccc4c(=O)[nH]3)CC2)cc1 | 6
10 | COc1ccccc1-c1c(C(F)(F)F)oc2cc(OCC(=O)Nc3ccccc3C(F)(F)F)ccc2c1=O | -4.75
11 | CCOC(=O)c1nn(-c2ccccc2)c(=O)cc1SC(C)C | -10.4
12 | Cc1ccc(NC(=O)c2ccccc2NS(=O)(=O)c2ccc(F)cc2)cc1S(=O)(=O)N1CCCCC1 | 3.9
13 | Cc1cccc(Cc2cnc(NC(=O)CN3C(=O)/C(=C/c4ccccc4)SC3=S)s2)c1 | 11.5
14 | O=C(N=Nc1c(O)[nH]c2ccccc12)c1ccc(CN2CCOCC2)cc1 | 13.7
15 | CCc1ccc(-n2c(=O)c3c(C)c(C(=O)N(C)C)sc3n(CC(=O)NCc3ccco3)c2=O)cc1 | 1.24
16 | Cc1sc(NC(=O)c2cccc(N3C(=O)CCC3=O)c2)nc1-c1ccccc1 | 6.31
17 | Cc1cc(C)c(C#N)c(SCC(O)COc2ccc(Br)cc2)n1 (stereo not shown) | 16.5
18 | CCOCCCNS(=O)(=O)c1cc2[nH]c3c(c2cc1C)C(=O)CC(C)(C)C3 | 7.16
19 | CCc1c(C)sc(NC(=O)c2noc(C)c2[N+](=O)[O-])c1C#N | 6.75
20 | CC(=O)c1cccc(NC(=O)C(C)OC(=O)Cc2n[nH]c(=O)c3ccccc23)c1 (stereo not shown) | 16.5
21 | COC1CCN(C(=O)c2ccc3oc(C(C)C)nc3c2)CC1 | 11.8
22 | Cc1ccc(-c2cc(-c3ccccc3)cc(-c3ccccc3)[n+]2-c2ccccc2)cc1.[O-][Cl+3]([O-])([O-])[O-] | -80.4

Row | Compound | hERG current change (%, negative = inhibition) at 1uM [%]
23 | N#Cc1cc(S(=O)(=O)c2ccc(F)cc2)c(N)[nH]c1=O | 7.94
24 | O=S(=O)(NCc1cccnc1)c1ccc(Cl)c2ccccc12 | 11.2
25 | O=[N+]([O-])c1cccc(/C=C/c2nc(C=Nc3ccc4ccccc4c3)c(O)o2)c1 | -4.85
26 | N#CCN1C(=O)C2CCCN2c2ccc(S(=O)(=O)N3CCOCC3)cc21 (stereo not shown) | 18.2
27 | CC(=O)N1CCc2cc(S(=O)(=O)NCCC(=O)N3CCN(Cc4ccccc4)CC3)ccc21 | -7.96
28 | CN(C(=O)COC(=O)CNC(=O)C12CC3CC(CC(C3)C1)C2)c1ccccc1 | -3.57
29 | COc1ccc2nc(C)cc(Nc3ccc(N4CCN(C)CC4)cc3)c2c1 | 4.39
30 | COc1ccc(Cc2nnc(Nc3ccc(C)cc3)o2)cc1OC | 11.4
31 | CCN(CC)c1ccc(C(=O)OCc2c(C)noc2C)cc1 | 12.9
32 | CCOC(=O)c1[nH]c(Cc2[nH]c(C(=O)OCC)c(C)c2CCC(=O)OC)c(CCC(=O)OC)c1C | 0.391
33 | CC(=O)N(C1=C(N2CCOCC2)C(=O)c2ccccc2C1=O)c1ccc(C(=O)O)cc1 | 22.5
34 | CC(C)Cc1nc(SCc2cccnc2)c2c(=O)n(C)c(=O)n(C)c2n1 | 9.57
35 | C=CCNC(=O)NC(=O)COn1nnc2ccc(S(=O)(=O)N(C)C)cc21 | 14.7
36 | COc1ccc(C(=O)CSc2nc3ccccc3n2CC(=O)c2ccccc2)cc1 | 1.75
37 | Cc1ccc2[nH]cc(CCNC(=O)c3cccs3)c2c1 | 9.49
38 | CCOc1ccc(C(C(=O)NC2CCCCC2)N(C(=O)c2csnn2)C2CC2)cc1 (stereo not shown) | 13.2
39 | Cc1ccccc1NC(=O)CNC(=O)Cc1cccc2ccccc12 | 14.5
40 | COc1cc(OC)cc(-c2n[nH]c(=S)n2-c2cc(OC)ccc2OC)c1 | -9.86
41 | Cc1cc2c(cc1C)NC(=O)CC(C(F)(F)C(F)(F)C(F)(F)F)=N2 | 9.28
42 | CCOc1cc(C(=O)Nc2ccc(S(=O)(=O)N3CCOCC3)cc2)cc(OCC)c1OCC | 7.84
43 | Cc1ccc(-n2nc3c(=O)n(CCCC(=O)NC4CCC(C)CC4)nc(C)c3c2C)cc1 (stereo not shown) | 9.74
44 | CC(C)(C)NS(=O)(=O)c1ccc(/C=C/C(=O)O)cc1 | 14.7

Row | Compound | hERG current change (%, negative = inhibition) at 1uM [%]
45 | COc1ccc(Oc2nc(Oc3ccc(OC)cc3)nc(Oc3ccc(OC)cc3)n2)cc1 | -7.77
46 | O=C(Nc1nnc(C2CC2)s1)c1ccc(Cl)nc1 | 5.26
47 | O=C(NCC1CCCO1)C(=O)NCC(c1ccco1)N1CCN(c2ccc(F)cc2)CC1 (stereo not shown) | 1.42
48 | O=C1CSC(c2ccccc2F)N1 (stereo not shown) | 8.38
49 | O=C(Nc1nccs1)c1ccc(N2CCOCC2)c([N+](=O)[O-])c1 | 9.81
50 | CCOC(=O)C1(Cc2cccc(OC)c2)CCCN(C(=O)CNC(C)=O)C1 (stereo not shown) | 15.1
51 | COc1cccc(CN2CCCC(C(=O)N3CCCCC3)C2)c1.O=C(O)C(=O)O (stereo not shown) | 14.1
52 | CC(C)c1ccc(NC2CCCN(C(=O)C3=NN(C)C(=O)CC3)C2)cc1 (stereo not shown) | 13.2
53 | CC(=O)Nc1ccc(NC(=O)C2C3C=CC(C3)C2C(=O)O)cc1 (stereo not shown) | 11.3
54 | CC(C)CC(=O)Nc1nc(=S)ss1 | 14.2
55 | CCCCCC(=O)N/N=C/c1ccc([N+](=O)[O-])o1 | 0.253
56 | COc1ccc(-c2nc3cc([N+](=O)[O-])ccc3o2)cc1 | 13.4
57 | COc1ccc2c(c1)cc(C(O)c1ccccn1)n2S(=O)(=O)c1ccccc1 (stereo not shown) | 12.9
58 | O=C1CN(C(=O)/C=C/c2cccc(Cl)c2)c2ccccc2N1 | 7.62
59 | O=C(O)C1CCCN1S(=O)(=O)c1ccccc1 (stereo not shown) | -9.03
60 | COc1ccc(CCNc2nc(C)cc(C)c2C#N)cc1OC | 18.9
61 | COc1cccc(CCC(=O)O)c1OC | 15
62 | COc1ccc(/C=C/C(=O)O)cc1S(=O)(=O)N1CCCCC1 | 7.16
63 | COc1ccc(CNCC(=O)Nc2cc(C)nn2-c2nc(C)cc(C)n2)cc1OC | -7.66
64 | N#Cc1nc(-c2ccc(F)cc2)oc1N1CCN(C(=O)c2ccco2)CC1 | -24.9
65 | O=C(COC(=O)c1cccs1)NC1CCCC1 | 16
66 | CC(C)c1nc(-c2ccccc2)c(-c2ccccc2)[nH]1 | 4.94

Row | Compound | hERG current change (%, negative = inhibition) at 1uM [%]
67 | CC1CC(C)CN(CCCNC(=O)CN2C(=O)CSc3ccc(S(=O)(=O)N4CCOCC4)cc32)C1 (stereo not shown) | 15.7
68 | O=C(CN1C(=O)NC2(CCCCC2)C1=O)NCCC1=CCCCC1 | 14.5
69 | O=C(NCc1cccs1)c1cnc2ccccn2c1=O | -5.4
70 | NC(N)=N/N=C/c1ccc(Cl)cc1Cl | 10.2
71 | C=CCn1c(SC/C=C/c2ccccc2)nnc1-c1sc(N)nc1C | 5.53
72 | CCCN1CCC(=O)N([C@H](CSc2ccc(Br)cc2)Cc2ccccc2)CC1 | -30.7
73 | CC(=O)N1CCN(C(=S)Nc2ccc(Oc3ccccc3)cc2)CC1 | 4.02
74 | CCCc1cc(NCc2ccccn2)n2c(nc3ccccc32)c1C#N | 11.1
75 | COc1ccccc1/C=N/NC(=O)c1ccc2c(c1)OCO2 | 14.1
76 | Cc1ccc(NC(=O)c2cccc(Oc3ccc([N+](=O)[O-])cc3)c2)c(C(=O)O)c1 | 10.6
77 | Cc1nc(C(C)N(C)Cc2nc(-c3ccc4c(c3)OCO4)no2)c(C)s1 (stereo not shown) | 12.2
78 | Cc1cc(NC(=O)CCl)no1 | 14.7
79 | CCCCN1C(=O)C(=O)N(c2ccccc2)C1=S | 13.3
80 | CC(=O)OCC1=C(C(=O)O)N2C(=O)C(NC(=O)CCn3nc(C(F)(F)F)c(Br)c3C3CC3)C2SC1 (stereo not shown) | 7.08
81 | O=C(COc1ccc(-n2cnnn2)cc1)N1CCN(c2ccc(F)cc2)CC1 | -60.3
82 | Cc1c(O)ccc(/C=N/Nc2ncccc2[N+](=O)[O-])c1O | 10
83 | O=C(O/N=C1\CCS(=O)(=O)c2sccc21)c1c(F)cccc1F | 5.56
84 | NC(=O)c1ccc(Cl)c2ccccc12 | 17.9
85 | COc1cc(NC(=O)c2ccc3nsnc3c2)cc(OC)c1OC | 11.8
86 | O=C(NC(=S)NCc1ccccc1)c1cccnc1 | 6.35
87 | Cc1onc(-c2ccccc2)c1C(=O)N(Cc1ccccc1)C(C)C | 13.4
88 | COc1ccc(Cl)cc1/C=C/c1ccc2cccc(O)c2n1 | 9.65
